Test results: PubChem BioAssay AID489012 (National Center for Advancing Translational Sciences (NCATS), 2010)
The inconclusive results got no clear call from the source; some entries with a clear call stand among them for comparison. Potencies of inconclusive entries are doubtful fits and often do not repeat. Activity calls are given as the source filed them. Calls follow the shape of the dose curve; as a rule, active = well fitted activation curve with a large enough effect; inconclusive = small, poorly fitted or top-dose-only effect; inactive = no such curve, though single readings can be large or run the other way.

What follows are compounds tested against Relaxin receptor 1 (Homo sapiens) (UniProt Q9HBX9) (assay: qHTS Assay for Agonists of the Relaxin Receptor RXFP1: RXFP1 Hit Validation). Conditions: HEK293T-RXFP1 cAMP TR-FRET, 30 min; series mostly up to 115 µM.
UniProt Q9HBX9, sequence (Q9HBX9 whole entry, looked up): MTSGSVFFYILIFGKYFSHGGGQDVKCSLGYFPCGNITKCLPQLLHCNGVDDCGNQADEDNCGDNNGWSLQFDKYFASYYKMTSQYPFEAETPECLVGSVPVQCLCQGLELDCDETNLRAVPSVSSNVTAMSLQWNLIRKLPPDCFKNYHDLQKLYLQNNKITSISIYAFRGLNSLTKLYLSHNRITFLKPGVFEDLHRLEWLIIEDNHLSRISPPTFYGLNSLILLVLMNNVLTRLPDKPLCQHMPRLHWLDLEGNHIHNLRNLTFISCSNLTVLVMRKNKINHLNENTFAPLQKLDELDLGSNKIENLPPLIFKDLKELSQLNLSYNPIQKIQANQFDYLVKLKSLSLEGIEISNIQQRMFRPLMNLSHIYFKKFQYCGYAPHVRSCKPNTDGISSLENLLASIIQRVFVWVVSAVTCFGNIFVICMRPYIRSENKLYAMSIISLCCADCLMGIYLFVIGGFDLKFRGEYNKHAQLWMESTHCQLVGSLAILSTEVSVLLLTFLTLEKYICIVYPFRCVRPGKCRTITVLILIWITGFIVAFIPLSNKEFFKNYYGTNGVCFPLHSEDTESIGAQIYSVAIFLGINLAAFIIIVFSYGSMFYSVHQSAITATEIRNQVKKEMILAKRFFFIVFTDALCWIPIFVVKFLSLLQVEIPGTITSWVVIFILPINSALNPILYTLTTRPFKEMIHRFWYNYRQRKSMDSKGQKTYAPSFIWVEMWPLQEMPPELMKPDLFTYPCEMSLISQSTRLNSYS
Also: nearly all actives have a fitted effect of over 65% in size.
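For activation in this document: cAMP rise lowers the TR-FRET signal in lysed cells with PDE4 inhibitor present.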
Potency is read from the fitted curve at half-maximal effect; tags tell the direction and shape of the fitted curve.

| Compound | Potency |
| --- | --- |
| COc1ccc(C=O)cc1CN1C(=O)c2ccccc2C1=O | inconclusive: 30.9 µM [activator, partial curve] |
| CCOC(=O)CC(NC(=O)CCc1c(C)nc2nc(C)nn2c1C)c1ccc(OC(C)C)cc1 (stereo not given) | inconclusive: 30.9 µM [activator, partial curve] |
| O=C(NC1CCCCCC1)c1cc2c(=O)n3ccccc3nc2s1 | active: 34.6 µM |
| CC1(C)CC(=O)C2=C(C1)NC1=C(C(=O)c3ccccc31)C2c1cc([N+](=O)[O-])ccc1O (stereo not given) | inconclusive: 27.5 µM [activator, partial curve] |
| O=C(O)c1ccc(N2C(=O)c3cccc4c(C(=O)O)ccc(c34)C2=O)cc1 | inactive |
